In publication PMC4336329 (PLoS ONE, 2015):
Among all 310,000 compounds or so, about 2,200 (0.71%) showed an effect of 50% or more. The effect is printed as a negative number. Some of the results follow.

Each compound was assayed against human ether-à-go-go-related gene (hERG) potassium channel (human, UniProt Q12809) (assay: primary screen, population patch clamp on CHO cells stably expressing hERG).
human ether-à-go-go-related gene (hERG) potassium channel, sequence (Q12809 whole entry, looked up): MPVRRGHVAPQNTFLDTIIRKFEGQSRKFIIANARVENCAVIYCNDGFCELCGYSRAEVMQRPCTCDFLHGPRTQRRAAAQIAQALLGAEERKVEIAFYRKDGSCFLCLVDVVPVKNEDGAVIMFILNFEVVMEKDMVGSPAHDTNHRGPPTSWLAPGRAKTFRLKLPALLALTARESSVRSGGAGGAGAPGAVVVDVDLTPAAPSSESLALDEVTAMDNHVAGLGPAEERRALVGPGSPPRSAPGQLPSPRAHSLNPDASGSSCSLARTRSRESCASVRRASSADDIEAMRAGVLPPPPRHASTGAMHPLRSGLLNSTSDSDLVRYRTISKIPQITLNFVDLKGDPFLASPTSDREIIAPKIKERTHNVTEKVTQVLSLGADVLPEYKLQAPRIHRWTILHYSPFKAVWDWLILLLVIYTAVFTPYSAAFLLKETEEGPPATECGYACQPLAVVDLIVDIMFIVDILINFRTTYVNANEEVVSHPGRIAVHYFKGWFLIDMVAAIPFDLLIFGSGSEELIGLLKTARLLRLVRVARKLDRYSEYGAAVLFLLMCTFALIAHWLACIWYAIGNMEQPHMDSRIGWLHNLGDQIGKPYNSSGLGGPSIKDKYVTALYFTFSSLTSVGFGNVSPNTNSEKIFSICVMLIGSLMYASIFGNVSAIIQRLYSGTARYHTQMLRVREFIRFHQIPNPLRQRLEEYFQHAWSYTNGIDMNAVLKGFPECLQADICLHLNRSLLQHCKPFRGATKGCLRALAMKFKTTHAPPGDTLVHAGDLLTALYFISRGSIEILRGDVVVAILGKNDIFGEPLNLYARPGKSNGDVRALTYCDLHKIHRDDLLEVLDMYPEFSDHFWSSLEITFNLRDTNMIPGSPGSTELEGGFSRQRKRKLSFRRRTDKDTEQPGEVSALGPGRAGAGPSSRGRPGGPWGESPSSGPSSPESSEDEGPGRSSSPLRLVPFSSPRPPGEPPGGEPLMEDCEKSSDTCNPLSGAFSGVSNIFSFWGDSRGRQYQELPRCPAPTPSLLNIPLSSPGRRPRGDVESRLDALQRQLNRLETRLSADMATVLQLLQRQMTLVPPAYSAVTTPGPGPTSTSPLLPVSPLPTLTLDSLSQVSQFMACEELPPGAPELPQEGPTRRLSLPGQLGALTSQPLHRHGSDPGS

Compound | hERG current change (%, negative = inhibition) at 1uM
O=C1NCCCN1Cc1ccc(F)cc1 | -6.41%
O=C(O)c1ccc(Cl)c(NCc2cccs2)c1 | 19.9%
COc1cc(NS(=O)(=O)c2ccc(C)cc2)ccc1-n1cnnn1 | 3.49%
OCC[C@@H]1C[C@H](O)[C@@H](O)[C@]2(OCc3ccccc32)O1 | 11.7%
CC1CCN(CCNC(=O)c2ccc(NC(=O)C3CCCO3)cc2)CC1 (stereo not drawn) | 0.659%
CCNc1cc2n(c(=O)n1)CCc1cc(OC)c(OC)cc1-2 | 3.77%
O=C(C(=O)N1CCCc2ccccc21)N1CCCc2ccccc21 | -7.46%
C[C@@H]1CC=C[C@H]2[C@H]1C(=O)N(Cc1ccccc1)[C@H]2c1ccc(F)c(/C=C/c2ccccc2)c1 | 16.7%
O=C(CN1C(=O)c2cccc3cccc1c23)Nc1ccccc1C(=O)NCc1ccco1 | 2.33%
Cc1ccc(/C=N/NC(=O)CNC(=O)c2ccc(S(=O)(=O)N(C)C)cc2)o1 | 16.3%
COc1ccccc1-c1noc2ncnc(Nc3ccc4c(c3)OCO4)c12 | 8.27%
Cc1cccc(OC(C)C(=O)Nc2ccc(S(=O)(=O)N3CCCC3)cc2)c1 (stereo not drawn) | 8.32%
COc1ccc2c(c1)CC(N1CCN(C)CC1)c1cc(OC)ccc1S2.O=C(O)/C=C\C(=O)O (stereo not drawn) | 0.852%
O=S(=O)(c1cccc2nsnc12)N1CCOCC1 | -1.94%
COc1ccc(CC2c3cc(OC)c(OC)cc3CCN2C)cc1OC (stereo not drawn) | 8.7%
CCN(C(=O)COC(=O)CCCN1C(=O)c2cccc3cccc(c23)C1=O)C1CCS(=O)(=O)C1 (stereo not drawn) | 9.01%
Cc1ccc(SCC(=O)N=C2NC(=O)CS2)cc1 | 11.1%
CN(Cc1cccs1)C(=O)COC(=O)CNC(N)=O | 13.1%
CCOC(=O)CC(=O)CSc1nc(C)nc2c1oc1ccccc12 | 24.1%
Cc1ccc(CN2CCCCC2C(=O)Nc2ccc(Oc3cccnc3)cc2)o1 (stereo not drawn) | -0.0911%
O=C(CNC(=O)c1ccccc1)N/N=C/C=C/c1ccccc1 | 15.9%
Cc1ccc(NC(=O)c2cc(N(C)C)ccc2[P+](=O)O)cc1 | 4.05%
CCOc1ccc(S(=O)(=O)N(C)CC(=O)NC2CC2)cc1 | 16.1%

Compound | hERG current change (%, negative = inhibition) at 1uM
C=CCn1c(=O)/c(=C\c2ccsc2)s/c1=C(/C#N)C(=O)NCCN1CCOCC1 | 7.46%
Br.CCOC(=O)/C(=N\Nc1ccccc1[N+](=O)[O-])c1csc(N)n1 | 6.8%
NC(=O)/C(=C/c1ccc2c(c1)OCO2)NC(=O)c1ccco1 | 15.9%
O=C1CCCC2=C1C(c1ccccc1)n1c(s/c(=C/c3cccc(F)c3)c1=O)=N2 (stereo not drawn) | 19.2%
CN1CCN(c2ccc(C(CC(N)=O)NC(=O)Cc3cccc4ccccc34)cc2[N+](=O)[O-])CC1 (stereo not drawn) | 12.7%
CC(C)(C)SCCNC(=O)/C=C/c1ccc(F)cc1 | 4.25%
CN1CCN(NC(=O)c2cc(-c3ccc(Br)s3)nc3ccccc23)CC1 | 7.35%
COC(=O)C1CCCCN1C(=O)c1ccc(OC2CCN(C(C)=O)CC2)c(OC)c1 (stereo not drawn) | 13.4%
O=C(Nc1ccc(F)c(Cl)c1)N1CCCC1 | 11.7%
CCOC(=O)Cc1csc(SC(C)C(=O)NC2CCCCC2C)n1 (stereo not drawn) | 2.92%
CNC(=O)c1nc(C)n(-c2cc(Cl)ccc2Cl)n1 | 16.4%
COc1cc2c(cc1O)CC1c3c(cc(O)c(OC)c3-2)CCN1C (stereo not drawn) | -49.7%
[O-][n+]1onc2c3cc(-c4ccccc4)nnc3ccc21 | 1.69%
Cc1ccccc1C(=O)N1CCC(C(=O)Nc2ccccc2Cl)CC1 | 15.2%
Cc1ccnc2nc(C(=O)Nc3ccc4c(c3)OCO4)nn12 | 4.76%
O=C(COC(=O)CC1CCCC1)Nc1ccccc1[N+](=O)[O-] | 11.3%
CC1CN/C(=C\C(=O)c2ccc(Cl)cc2)C(=O)N1 (stereo not drawn) | -1.19%
C/C(=N/NS(=O)(=O)c1ccc(C)cc1C)c1ccc2c(c1)OCO2 | 7.65%
COc1cc(C(C[N+](=O)[O-])c2c(C)cc3ccccn23)ccc1O (stereo not drawn) | 5.13%
CN(C)P(=O)(CCl)Nc1ccccc1 (stereo not drawn) | 11.8%
COc1cc(NC(=O)COC(=O)C2CC2)c(C)cc1[N+](=O)[O-] | 12.3%
COC(=O)CSc1nnc(-c2cccnc2)n1-c1cccc(OC)c1 | 11.6%
CCOC(=O)C1CCN(C(=O)N2CCOCC2)CC1 | 0.708%

Compound | hERG current change (%, negative = inhibition) at 1uM
O=C(CN1C(=O)NC2(CCCC2)C1=O)Oc1ccc2ccc(=O)oc2c1 | 8.19%
CCc1ccc(S(=O)(=O)N2CCN(c3ccccc3OC)CC2)cc1 | 12.2%
COC(=O)C1=C(C(=O)OC)[C@@H]2N(Cc3ccccc3)c3ccccc3[C@@]23C[C@@H](CO)N(C(=O)NC2CCCC2)C3=N1 | 2.25%
O=C(NCc1ccccc1)C1CCN(S(=O)(=O)N2CCCCCC2)CC1 | 4.68%
Cc1ccc(N2C(=O)C3C4C=CC(C4)C3C2=O)cc1 (stereo not drawn) | 6.86%
O=C(Cn1cnc2ccccc2c1=O)OCCCCN1C(=O)c2ccccc2C1=O | 10.1%
Cc1nn(C)cc1S(=O)(=O)N1CCCC(C(=O)O)C1 (stereo not drawn) | 18.4%
N#CCCc1cccc(CCC#N)c1 | 8.54%
Cc1ccc2nc(N(CCCN(C)C)C(=O)c3ccc(S(=O)(=O)N4CCc5ccccc5C4)cc3)sc2c1.Cl | 5.48%
CCOc1cc(/C=C2\C(=O)N(CCC#N)N=C2C)ccc1OCC(N)=O | 22%
Cc1ccccc1NC(=O)c1cc(C(=O)c2cc(Cl)ccc2O)cn(-c2ccccc2C)c1=O | 2.35%
O=c1cnnc(N/N=C/C2CC=CCC2)[nH]1 (stereo not drawn) | -3.88%
c1ccc(-c2nn3cnnc3c3ccccc23)cc1 | 6.79%
CCOc1ccccc1NC(=O)CSc1ncnc2c1oc1ccccc12 | 0.609%
Cc1ccc(C(=O)c2ccccc2C(=O)OCC(=O)NCCc2ccc(Cl)cc2Cl)cc1 | 6.78%
CC(=NCc1ccco1)c1c(O)n(Cc2ccccc2)c(=O)[nH]c1=O | 4.77%
CCOC(=O)C1CCCN(Cc2nc(N)nc(Nc3ccc(OC)cc3)n2)C1 (stereo not drawn) | -67.8%
Cc1ccc(/C=C(\C#N)C(=O)Nc2cccc3ncccc23)o1.Cl | 11.8%
Cc1ccc(SCc2cn3cc(Cl)ccc3n2)cc1 | 2.46%
O=C1CCCc2c1nc(-c1ccc([N+](=O)[O-])cc1)n2O | 10.6%
CCOC(=O)Cc1csc(Nc2ccc(Cl)cc2)n1 | 10.2%
COc1cc(NC(=O)Cn2nc(-c3ccc(F)cc3)ccc2=O)ccc1-n1cnnn1 | 12%
CC(C)C(=O)N1CCN(c2ccc(NC(=O)c3ccc(Br)o3)cc2)CC1 | 14.2%

Compound | hERG current change (%, negative = inhibition) at 1uM
Cc1cccc(NC(=O)CSc2nnc(C)c(=O)n2N)c1 | 13.1%
FC(F)(F)c1ccc(Cl)c(NC(=S)NC2CC2)c1 | 1.26%
Nc1nc(NCc2cccs2)nn1-c1ccccc1 | 4.91%
O=C(COc1ccccc1[N+](=O)[O-])NC1CC1 | 1.78%
COc1ccc(NC(=O)NNS(=O)(=O)c2ccc(OC)c(OC)c2)c(OC)c1 | 13.5%
O=[N+]([O-])c1ccccc1NCc1c(O)ccc2ccccc12 | 13.5%
O=C(NCc1ccco1)c1cnn2c1NC(c1ccc(Br)cc1)CC2C(F)(F)F (stereo not drawn) | 7.95%
CCC(=O)Nc1ccc2c(c1)ncn2-c1ccc(OC)cc1 | 11.4%
CCC(CC)NCCOC(=O)c1ccc([N+](=O)[O-])cc1 | -3.41%
CC(=O)OC(C(=O)NCc1ccco1)c1ccncc1 (stereo not drawn) | 5.93%
CC(C)c1ccc(NC(=O)CCNS(=O)(=O)c2cccc3nonc23)cc1 | 4.01%
CCn1c(N)[n+](CC(=O)Nc2ccc(SC(F)F)cc2)c2ccccc21.[Cl-] | -63.1%
CCc1nnc(NC(=O)[C@@H](NC(=O)c2cccc(C)c2)C(C)C)s1 | 10.5%
N#CC1(NC(=O)Cn2cc(C(F)(F)F)ccc2=O)CCCC1 | -1.17%
COc1cc(C(=S)N2CCOCC2)cc(OC)c1OS(=O)(=O)c1ccc(C)cc1 | 10.9%
Nc1ccc2nc3c(c(Cl)c2c1)CCCC3 | 0.0347%
O=C(CSCCO)Nc1ccc([N+](=O)[O-])cc1 | 3.82%
CCn1nnnc1-c1ccc(OC)c(S(=O)(=O)NCc2ccccc2)c1 | 5.34%
CSCCC1NC(=O)N(CC(=O)Nc2ccc(-c3ccccc3)cc2)C1=O (stereo not drawn) | 2.01%
COc1ccc(/C=C/c2ccncc2)cc1OC | 5.16%
CCOc1cccc(-c2c(C(=O)N/N=C/c3ccc(C)s3)nnn2-c2nonc2N)c1 | 16.6%
